The RNAGym collection of RNA variant scans (doi:10.1093/nar/gkz1192)
Read counts are not given, so values of variants with three or more changes are uncertain.

B1: CPEB3 Ribozyme (parent)
chain: UAACAGGGGGCCACAGCAGAAGCGUUCACGUCGCAGCCCCUGUCAGAUUCUGGUGAAUCUGCGAAUUCUGCUGUAUAUCUC

Variants of: B1
Assay: self-cleavage, relative activity (ratio to wild type); higher = more cleavage; in vitro, sequencing
How it was run: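 Libraries of CPEB3 self-cleaving ribozyme mutants came from rounds of error-prone PCR and carried barcodes, which DNA sequencing matched to variants. In vitro transcription used T7 RNA polymerase at 37°C for 5 hours, with a further 15 min in DNase I before EDTA stopped the reaction; the ribozymes cleaved during both steps. The RNA was reverse transcribed with template switching and sequenced on Illumina. Relative activity is the cleaved/total read fraction of a variant divided by that of the unmutated ribozyme, averaged over three batches with at least 5 reads.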
Variant G6A A13U U43A U54A A56G has a self-cleavage of 0.12.
A5U U60G C62U gave a self-cleavage of 0.17.
G6A G22C U54C G55C U80C showed a self-cleavage of 0.17.
Work on G6A C23G U72C yielded a self-cleavage of 0.66.
In the case of G6A A18U C29A A35G A65G, the self-cleavage is reported as 0.06.
With A5U U66C U69C U72A the self-cleavage was 0.16.
G6A A56U U67C U80C showed a self-cleavage of 0.15.
Variant A5U U72C A77U has a self-cleavage of 1.12.
Variant G6A C12U A56G has a self-cleavage of 0.12.
Work on G6A A18U U25A U58A U74C yielded a self-cleavage of 0.1.
With A5U U60C U78C the self-cleavage was 0.49.
Variant G6A A18G U25C A57G has a self-cleavage of 0.04.
A5U U69C G70C U78C gave a self-cleavage of 0.24.
With G6A A47G U60A the self-cleavage was 0.15.
With A5U U66C A77U the self-cleavage was 0.61.
In the case of G6A A15G U26A U41G A64G U78A, the self-cleavage is reported as 0.14.
Variant G6A U31A U58C has a self-cleavage of 0.19.
G6A A18U U25C A28U U54C U66C U72A gave a self-cleavage of 0.06.
Variant G6A A13U A21G U49C U80A has a self-cleavage of 0.08.
In the case of G6A C32G A35G U41A U54C C62U A64U, the self-cleavage is reported as 0.05.
Variant G6A G10A U25A A45U U54A has a self-cleavage of 0.05.
Work on G6A A47G A56G A77G U80A yielded a self-cleavage of 0.38.
In the case of G6A A28U A64C, the self-cleavage is reported as 0.22.
Variant G6A A45G A64U U67C U76A has a self-cleavage of 0.22.
With G6A G8C U41C A45G A47G U80A the self-cleavage was 0.07.
Variant G6A C23G U25C U41C G52A has a self-cleavage of 0.06.
Work on A5U U72A U80A yielded a self-cleavage of 0.64.
G6A G19U U43A U66C gave a self-cleavage of 0.05.
G6A C23G A35G G52C U67G showed a self-cleavage of 0.05.
G6A C40A A57G A64G gave a self-cleavage of 0.24.
In the case of G6A A15G U31A U72C U80C, the self-cleavage is reported as 0.09.
In the case of G6A U25C G30C U51A U54G A56G, the self-cleavage is reported as 0.07.
Work on G6A C12G A13G yielded a self-cleavage of 0.44.
Work on G6A C37U U76A yielded a self-cleavage of 0.35.
G6A U26C U60C U66C A77G gave a self-cleavage of 0.1.
In the case of G6A A21G U26A G33U A45G A47G U60A, the self-cleavage is reported as 0.04.
G6A C44U U60C gave a self-cleavage of 0.07.
G6A A18G C29U U41G C50U A57G C79U gave a self-cleavage of 0.02.
G6A G19U U25C C32A U51A U80A showed a self-cleavage of 0.22.
G6A A64G U66A showed a self-cleavage of 0.41.
G6A G9A G16A U41A A45U C71U U72G showed a self-cleavage of 0.04.
G6A A13U A18G U41G A57G gave a self-cleavage of 0.09.
For G6A G10A U25A A28U A45U U54A A77G, the self-cleavage was 0.04.
Work on G6A A28G U41C A56G yielded a self-cleavage of 0.16.
Variant G6A C34G A77C has a self-cleavage of 0.16.
G6A U25C U74A gave a self-cleavage of 0.28.
G6A A28G A45G U51C U60A showed a self-cleavage of 0.05.
Work on G6A A13U U49G A57G yielded a self-cleavage of 0.07.
G6A C17U A35G U43C A57G showed a self-cleavage of 0.06.
G6A U25C G33U U49C U54C gave a self-cleavage of 0.25.
With G6A G16U C27U A64G U67C the self-cleavage was 0.12.
With G6A A18U A35C A47G A75U the self-cleavage was 0.06.
With G6A C32A U48C U74C the self-cleavage was 0.07.
G6A A18U A45G U78C gave a self-cleavage of 0.24.
In the case of G6A A35U A45G U54A, the self-cleavage is reported as 0.08.
G6A A28U U51G U58A C68A showed a self-cleavage of 0.05.
In the case of G6A G10A A28G A47G U49C A65G U72A, the self-cleavage is reported as 0.
With G6A C32G U69C U80C the self-cleavage was 0.07.
With G6A A21G U26C A35U U41C U49C U69C the self-cleavage was 0.03.
With G6A A13U U41A U49C U51A the self-cleavage was 0.05.
In the case of G6A A45G U54A, the self-cleavage is reported as 0.48.
In the case of G6A G9C U48C A56G, the self-cleavage is reported as 0.07.
In the case of G6A G19U A20G G30C U78C, the self-cleavage is reported as 0.22.
Variant G6A A18U A64G A65G has a self-cleavage of 0.03.
With G6A A15U U60C the self-cleavage was 0.24.
For G6A A18U U48G U49A U60C U67C, the self-cleavage was 0.05.
Work on G6A A15G U60C yielded a self-cleavage of 0.22.
G6A A13C A21U U67C U72A showed a self-cleavage of 0.07.
With G6A C23U A35G A57G the self-cleavage was 0.12.
With G6A A15U U25C C27U A77G the self-cleavage was 0.19.
For G6A A15C U43C, the self-cleavage was 0.09.
With G6A A15G U58A A75G the self-cleavage was 0.14.
Variant G6A A28C U41C U48A U60C has a self-cleavage of 0.24.
In the case of G6A C23U U60A, the self-cleavage is reported as 0.21.
Work on G6A A13G A15G U72A U78C yielded a self-cleavage of 0.29.
G6A A45U A56G showed a self-cleavage of 0.18.
Work on G6A A28G A35C U69C C71U yielded a self-cleavage of 0.18.
With G6A A18G A35U A75G the self-cleavage was 0.15.
In the case of G6A A13G U25C, the self-cleavage is reported as 0.37.
With G6A C12A U48C U76C the self-cleavage was 0.19.
Work on G6A A28U C32A U76C yielded a self-cleavage of 0.06.
With G6A C14U C23G U25A C59G U80C the self-cleavage was 0.05.
With G6A A13U U48C A65G the self-cleavage was 0.15.
Variant G6A A35G A65C U72A has a self-cleavage of 0.25.
Work on G6A U25C C37A U67C yielded a self-cleavage of 0.05.
For G6A A18U A35U A75C, the self-cleavage was 0.26.
For G6A A13G A45U A57G, the self-cleavage was 0.23.
With G6A U31C A35G G42C A65G A75G U78C the self-cleavage was 0.02.
For G6A U25C C37U A64U U67C U72A, the self-cleavage was 0.05.
For G6A A35U A45G U78C, the self-cleavage was 0.06.
G6A A13G U60C showed a self-cleavage of 0.1.
With G6A U25C U26A U60G the self-cleavage was 0.3.
Work on G6A A28G U41C A65G G70A yielded a self-cleavage of 0.04.
G6A A13U G52A A57G U78C gave a self-cleavage of 0.54.
G6A C34G U66C C71U showed a self-cleavage of 0.13.
For G6A A47U U49C U80C, the self-cleavage was 0.1.
For G6A G33A A45C G52C A56G U66A U76A, the self-cleavage was 0.03.
For A5U U69C U80G, the self-cleavage was 0.95.
For G6A A28U C29U U31C U54A C71U, the self-cleavage was 0.19.
Work on G6A A15G C27A A28G A64G yielded a self-cleavage of 0.09.
Variant G6A A28G C38A U43C A45U A65G U66C has a self-cleavage of 0.12.
Work on G6A A13U U66C yielded a self-cleavage of 0.04.
Work on G6A A21G A35G U66A yielded a self-cleavage of 0.38.
For G6A A35U U41A U78C U80C, the self-cleavage was 0.08.
G6A A15G U26C U48C U58C showed a self-cleavage of 0.05.
G6A A18G A35U U60C gave a self-cleavage of 0.07.
For G6A A20G U58A, the self-cleavage was 0.14.
Work on G6A C50A U80C yielded a self-cleavage of 0.34.
For G6A C50U U66C, the self-cleavage was 0.25.
G6A A20U A57G U76A showed a self-cleavage of 0.14.
For G6A A13G U69C, the self-cleavage was 0.07.
G6A A20G A28U A35U C44U C71U U76C gave a self-cleavage of 0.04.
For G6A G10A C23G U72C, the self-cleavage was 0.05.
G6A U25A U54C U76C gave a self-cleavage of 0.06.
G6A A56G U80C showed a self-cleavage of 0.09.
G6A A47G U48C C50A U60C showed a self-cleavage of 0.2.
Variant G6A A20U U43C U58C U67G U74C U76A has a self-cleavage of 0.02.
With G6A A28G A47G U54A the self-cleavage was 0.07.
For G6A U25C U31C C37U U67A, the self-cleavage was 0.15.
G6A G9U A21G A28G A57G showed a self-cleavage of 0.02.
G6A A20G U26C U41A U49A U66C U78C showed a self-cleavage of 0.05.
In the case of G6A U25C A28U A47G U72C U80G, the self-cleavage is reported as 0.09.
Variant G6A U25C U43C A47G U48C U74C has a self-cleavage of 0.27.
For G6A A35U U54C A75G U80C, the self-cleavage was 0.09.
Work on G6A A28U U31A C37A A45G yielded a self-cleavage of 0.07.
In the case of G6A A64G U80G, the self-cleavage is reported as 0.11.
With G6A C14U A56U the self-cleavage was 0.09.
G6A A15U A28C U80A showed a self-cleavage of 0.23.
With G6A A15U A35G A45C U48C A56U the self-cleavage was 0.06.
In the case of G6A G19U A20G U58C A65G, the self-cleavage is reported as 0.05.
G6A C12U U26G U66C U72A gave a self-cleavage of 0.05.
Variant G6A G8U A20G A21G U41C A57C has a self-cleavage of 0.07.
In the case of A5U U67C U78A, the self-cleavage is reported as 0.3.
In the case of G6A A15G C34A U54C, the self-cleavage is reported as 0.08.
With G6A G9C A64G U72A U80A the self-cleavage was 0.06.
In the case of G6A A45G U49C A64U, the self-cleavage is reported as 0.03.
In the case of G6A A13G A21G U26C U41C U72A, the self-cleavage is reported as 0.05.
In the case of G6A A20G G36A U76C, the self-cleavage is reported as 0.22.
G6A A21G A56U A57G gave a self-cleavage of 0.05.
In the case of G6A C40U A47U U72G, the self-cleavage is reported as 0.08.
In the case of G6A G33U U49C U54C U66A, the self-cleavage is reported as 0.14.
With G6A G42A U43C A57G the self-cleavage was 0.23.
In the case of G6A A57G U60A, the self-cleavage is reported as 0.12.
With G6A A45G U51C the self-cleavage was 0.09.
For G6A C38U A56U, the self-cleavage was 0.1.
Work on G6A U25C U31A A64C U66A U80C yielded a self-cleavage of 0.05.
Work on G6A U31C A35G G36A U41G A75G yielded a self-cleavage of 0.04.
For G6A A18G U54C, the self-cleavage was 0.23.
Variant G6A A21G A35G A57G has a self-cleavage of 0.53.
Work on G6A A18U C32U U43A U58A U67C U74A yielded a self-cleavage of 0.04.
G6A A13U A28G U43C A65G U66C gave a self-cleavage of 0.05.
G6A C62U U72C gave a self-cleavage of 0.17.
G6A G33C U41G U54A U60C U76G showed a self-cleavage of 0.05.
With G6A A21G U41A U69C A75U the self-cleavage was 0.07.
With G6A U25A C38U U43C U49A U60C the self-cleavage was 0.04.
Work on G6A A21U U69A yielded a self-cleavage of 0.06.
Variant G6A A18G A56U has a self-cleavage of 0.04.
G6A G55C U72C C81U gave a self-cleavage of 0.11.
For G6A A18U U80A, the self-cleavage was 0.38.
With G6A A21G C39A A45C U60C A77G the self-cleavage was 0.07.
With G6A C38U U43A A56G A77C the self-cleavage was 0.16.
In the case of G6A A20G U25C U26C U66C, the self-cleavage is reported as 0.05.
G6A C14U A20U showed a self-cleavage of 0.04.
In the case of G6A A15G A45G A56G G63U, the self-cleavage is reported as 0.27.
G6A A13C A21G C27A A28G U60C U69A showed a self-cleavage of 0.07.
G6A A45U U54C A64U showed a self-cleavage of 0.13.
In the case of G6A A45G U78C, the self-cleavage is reported as 0.33.
